Laboratory results as given in PubChem BioAssay AID624296 (National Center for Advancing Translational Sciences (NCATS), 2012).
About 9,900 (2.8%) of roughly 350,000 compounds were called active. The shares of active, inactive and inconclusive entries below differ from those in the screen. Calls come from the whole dose curve; as a rule, active = well fitted activation curve with a large enough effect; inconclusive = small, poorly fitted or top-dose-only effect; inactive = no such curve, though single readings can be large or run the other way. Potencies of inconclusive entries are left out as doubtful fits.

Assay: A quantitative high throughput screen for small molecules that induce DNA re-replication in MCF 10a normal breast cells. For activity, positive = re-replication: % of control where 0% means no effect. Note: nearly all actives have a fitted effect of over 50% in size.
Conditions: MCF 10A DNA re-replication, Hoechst nuclear intensity, 48 h; activity, positive = re-replication: at 46.1 µM (top of the series)
Potency is the fitted concentration of half-maximal effect; tags give direction and shape of the fitted curve.

| Compound | Potency | activity, positive = re-replication |
| --- | --- | --- |
| COc1ccc(C2CC(=O)C3=C(C2)NC(C)=C(C#N)C3c2ccc(N(C)C)cc2)cc1 (stereo not given) | inconclusive [activator, single point] | – |
| COc1ccc(C(=O)Nc2ccc(-c3ccc(C)o3)cc2)cc1S(=O)(=O)N1CCOCC1 | inconclusive [activator, full curve, poor fit] | – |
| CCO/C(C)=N/n1c2nc3ccccc3nc2c2c(=O)n(Cc3ccccc3Cl)c(C)nc21 | inconclusive [activator, single point] | – |
| N#Cc1ccc(C2=CC(=O)C[C@H](c3ccc(Cl)cc3)C2)cc1 | inconclusive [activator, partial curve] | – |
| CCCn1c2c(c(O)c(C(=O)Nc3ncccc3O)c1=O)CCCC2 | inconclusive [activator, single point] | – |
| Cc1ccc(S(=O)(=O)NC(=O)Nc2cc(C)ccc2F)cc1 | – | inactive: -2.89% |
| CCN(CC)c1ccc(/C=N/NC(=O)C(O)(c2ccccc2)c2ccccc2)o1 | active: 7.31 µM | – |
| Cc1ccc(C)c(N2CCN(C(=O)CCc3nc(-c4ccccc4F)no3)CC2)c1 | active: 16.4 µM | – |
| O=C(CC1S/C(=N/N=C/C=C/c2ccccc2)NC1=O)Nc1ccc(Cl)c(Cl)c1 (stereo not given) | – | inactive: 2.25% |
| Cc1ccc(S(=O)(=O)NCC2CCC(C(=O)N3CCN(C)CC3)CC2)cc1 (stereo not given) | active: 18.4 µM | – |
| Cc1cccc(-n2nnnc2SCC(=O)c2cc(C)n(CC3CCCO3)c2C)c1 (stereo not given) | – | inactive: 12.9% |
| O=C(CNC(=S)N(Cc1ccccc1)Cc1cccs1)NCc1ccc(F)cc1 | inconclusive [activator, partial curve, poor fit] | – |
| COc1cc(CNC(C)c2ccccc2)cc(Br)c1OCc1ccc(F)cc1 (stereo not given) | inconclusive [activator, single point] | – |
| O=C1[O][Bi][O]c2ccccc21 | – | inactive: 1.38% |
| COc1cc(CN2CCN(c3ccccc3F)CC2)cc(OC)c1O | inconclusive [activator, partial curve, poor fit] | – |
| COc1ccc(CN(C(=O)c2nsc(Cl)c2Cl)C(C(=O)NC2CCCCC2)c2ccc(OC)cc2)cc1 (stereo not given) | – | inactive: 1.99% |
| CC(CCc1ccccc1)NC(=O)COC(=O)c1ccc(S(C)(=O)=O)c([N+](=O)[O-])c1 (stereo not given) | inconclusive [activator, partial curve, poor fit] | – |
| O=C(N/N=C/c1cc2c3c(c1O)CCCN3CCC2)c1ccccc1O | active: 13 µM | – |
| CCCC(C)NC(=O)COc1ccc(Sc2ccc(OCC(=O)NC(C)CCC)cc2)cc1 (stereo not given) | – | inactive: 18.4% |
| CC(C)(C)c1ccc(/C=C/C(=O)Nc2ncccn2)cc1 | – | inactive: 5.09% |
| CCOC(=O)c1cc(-c2cccs2)nc2onc(C)c12 | inconclusive [activator, partial curve, poor fit] | – |
| O=C(CN1C(=O)NC2(CCCCCC2)C1=O)N1CCN(S(=O)(=O)c2ccc(Cl)cc2)CC1 | inconclusive [activator, partial curve, poor fit] | – |
| CC(NC(=O)c1ccc2c(c1)OCCO2)C(=O)O (stereo not given) | inconclusive [activator, single point] | – |
| COc1cc(SC)ccc1C(=O)Nc1ccc2c(c1)CCC2 | inconclusive [activator, partial curve, poor fit] | – |

| Compound | Potency | activity, positive = re-replication |
| --- | --- | --- |
| Cc1noc(/C=C/c2nn(C)cc2Cl)c1[N+](=O)[O-] | active: 20.6 µM | – |
| O=C(c1ccco1)N1CCN(c2ncnc3c2nnn3Cc2ccccc2Cl)CC1 | – | inactive: -7.55% |
| CCOCCCNC(=S)NCCNc1nc2ccc(C)cc2cc1C#N | inconclusive [activator, partial curve] | – |
| Cc1ccc(OCCNC(=O)CCc2nc3sc4c(c3c(=O)[nH]2)CCCC4)cc1 | inconclusive [activator, partial curve, poor fit] | – |
| O=C(c1ccco1)N1CCN(C(=O)c2ccco2)C1=S | active: 2.59 µM | – |
| Nc1[nH]c(N=NC(=O)c2ccc(F)cc2)c2ccccc12 | – | inactive: -54.9% |
| CC(=O)c1ccc(NC(=O)CCCN2C(=O)COc3ccc(C)cc32)cc1 | – | inactive: 15.7% |
| C=C1/C(=C\C=C2/CCC[C@]3(C)[C@@H]([C@H](C)CCCC(C)(C)O)CC[C@@H]23)C[C@@H](O)C[C@@H]1O | active: 21.1 µM | – |
| Cc1ccc(SCC(=O)OC(C)C(=O)NC2CCCCC2C)c(C)c1 (stereo not given) | – | inactive: 4.96% |
| COc1cc2c(cc1OC)C(C)N(C(=O)C1COc3ccccc3O1)CC2 (stereo not given) | – | inactive: 0.559% |
| O=C(CCC(=O)c1cccs1)NNC(=O)c1ccccc1O | inconclusive [activator, partial curve, poor fit] | – |
| CCOC(=O)C1CCCN(C(=O)c2ccc(NC(=O)CC3SC(N4CCCC4)=NC3=O)cc2)C1 (stereo not given) | inconclusive [activator, full curve, poor fit] | – |
| COc1ccc(-c2cnnn2-c2ccc(NC(=O)/C=C/c3ccc(OC)c(OC)c3)cc2)cc1 | – | inactive: 2.05% |
| CCOc1ccc(N(CC(=O)Nc2nccs2)S(=O)(=O)c2c(C)noc2C)cc1 | inconclusive [activator, full curve, poor fit] | – |
| CCOc1ccc(S(=O)(=O)N2CCCCCC2)c2ccccc12 | inconclusive [activator, full curve, poor fit] | – |
| Cc1cccc(NC(=O)CCC2CCN(C(=O)C3CC=CCC3)CC2)c1 (stereo not given) | – | inactive: -1.47% |
| CCN(CC)S(=O)(=O)c1cccc(C(=O)N[C@H](C(=O)Nc2nc3ccc(F)cc3s2)C(C)C)c1 | inconclusive [activator, partial curve, poor fit] | – |
| Cc1occc1C(=O)N1CCCC(N2CCN(c3cccc(C(F)(F)F)c3)CC2)C1 (stereo not given) | inconclusive [activator, partial curve, poor fit] | – |
| Cc1c2ccccc2nc2c(F)c(NCCO)c(F)c(F)c12 | inconclusive [activator, single point] | – |
| Cc1cc(NC(=O)COC(=O)c2ccccc2S(=O)(=O)N(C)c2ccccc2)no1 | – | inactive: 16.3% |
| Cc1cc2c(SCC(=O)Nc3ccccc3O)ncnc2s1 | – | inactive: -11.4% |
| Cc1nc(Nc2ccccc2)c2oc3ccc(Cl)cc3c2n1 | inconclusive [activator, single point] | – |
| O=C(COc1ccccc1)NCC(c1cccs1)N1CCOCC1 (stereo not given) | inconclusive [activator, full curve] | – |
| O=S(=O)(Nc1ccc(N2CCCCC2)cc1)c1ccc(F)c(F)c1 | inconclusive [activator, single point] | – |

| Compound | Potency | activity, positive = re-replication |
| --- | --- | --- |
| COc1cc(NC(=O)COc2ccc(F)cc2)nc(OC)n1 | inconclusive [activator, partial curve, poor fit] | – |
| COc1cc(S(=O)(=O)Nc2ccccc2N2CCCCC2)ccc1NC(C)=O | active: 18.4 µM | – |
| O=C1C(Cl)=C(Oc2ccccc2)C(=O)c2ccccc21 | inconclusive [activator, full curve, poor fit] | – |
| Cc1[nH]n(-c2ccccc2)c(=O)c1C=Nc1ccc(S(N)(=O)=O)cc1 | – | inactive: 4.51% |
| CCn1c(O)c(N=NC(=O)CNC(=O)/C=C/c2ccco2)c2ccccc21 | inconclusive [activator, single point] | – |
| CCOC(=O)N1CCN(C(=O)c2ccc3c(=O)n(CCc4ccccc4)c(=S)[nH]c3c2)CC1 | inconclusive [activator, partial curve, poor fit] | – |
| COC(=O)C(C)Sc1nnc(SC(C)C(=O)OC)s1 (stereo not given) | – | inactive: -0.31% |
| O/N=C/c1cc(Br)cc(Br)c1OCc1ccccc1 | inconclusive [activator, partial curve, poor fit] | – |
| O=S(=O)(c1ccc(Cl)nc1)N1CCCc2ccccc21 | inconclusive [activator, full curve, poor fit] | – |
| C=CCNC(=O)C(=O)N/N=C/c1ccco1 | – | inactive: -2.66% |
| Cc1cc(C)cc(NS(=O)(=O)c2ccc3[nH]cc(C(=O)N4CCc5ccccc54)c(=O)c3c2)c1 | inconclusive [activator, single point] | – |
| COc1cc(C)ccc1OCCOc1ccccc1Cl | – | inactive: 2.19% |
| COC(=O)C1CCN(C(=O)c2cc(OC)c(OC)c(OC)c2)CC1 | inconclusive [activator, partial curve, poor fit] | – |
| Fc1cccc(CO/N=C/c2c(-c3ccccc3)nc3ccc(Cl)cn23)c1 | inconclusive [activator, full curve] | – |
| CCOC(=O)C1CCCN(C(=O)c2csc(-c3ccc4c(c3)CCO4)n2)C1 (stereo not given) | – | inactive: 0.878% |
| O=C(CC(SCCO)c1ccc(F)cc1)c1ccco1 (stereo not given) | active: 20.6 µM | – |
| Fc1cccc(Cc2noc(CN3CCCN(C4Cc5ccccc5C4)CC3)n2)c1 | inconclusive [activator, partial curve] | – |
| CC(C)(C)c1ccc(C(=O)Nc2nnc(Cc3c[nH]c4ccccc34)s2)cc1 | inconclusive [activator, single point] | – |
| CN1CCN(S(=O)(=O)c2cccc(C(=O)N(C)CC(=O)Nc3ccc(F)c(F)c3F)c2)CC1 | inconclusive [activator, single point] | – |
| O=C(NCC1CCCO1)c1onc(CSc2cccc3ccccc23)c1C(=O)O (stereo not given) | inconclusive [activator, single point] | – |
| Cc1noc(C)c1C(=O)Nc1ccc(F)cc1 | – | inactive: -4.04% |
| CN(CC(=O)Nc1ccccc1C(F)(F)F)C(=O)c1cc(-c2cccs2)nn1-c1ccccc1 | inconclusive [activator, partial curve] | – |
